Source: the supplement of paper PMC9446081
About 220 (0.56%) of roughly 39,000 compounds showed activity. Some of the results follow.

system: Escherichia coli K-12 BW25113; assay: relative growth (OD600 normalised to plate interquartile mean) (fraction); higher = less growth inhibition, active = 0.2 or less; conditions: 50 µM; LB; incubation time: overnight (16-24 h)
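Note: static incubation at 37 °C against the wild-type strain, values averaged over two biological replicates.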

Structure (SMILES) | relative growth
Cc1ccc(S(=O)(=O)N(C)C[C@H]2Oc3ccc(NS(=O)(=O)c4cn(C)cn4)cc3CC(=O)N([C@H](C)CO)C[C@@H]2C)cc1 | inactive: 1.02
COc1ccc(C#Cc2ccc3c(c2)O[C@@H](CN(C)C(C)=O)[C@H](C)CN([C@@H](C)CO)S3(=O)=O)cc1 | inactive: 1.03
Cc1noc(C)c1NC(=O)N(C)C[C@H]1Oc2c(NC(=O)Nc3cccc4ccccc34)cccc2C(=O)N([C@H](C)CO)C[C@H]1C | inactive: 1.02
Cn1cnc(CCNC(=O)C[C@@H]2CC[C@@H]3[C@H](COC[C@H](O)CN3C(=O)C3CC3)O2)c1 | inactive: 0.964
Cc1ccc(S(=O)(=O)N[C@@H](Cc2ccccc2)C(=O)NCCCn2cc(CCC(=O)NO)nn2)cc1 | inactive: 1
COc1ccc(N)nc1 | inactive: 1.04
C[C@@H]1CN([C@H](C)CO)C(=O)CCCn2nncc2CO[C@H]1CN(C)C(=O)CCCN(C)C | inactive: 0.982
COCC(=O)Nc1ccc2c(c1)C(=O)N(C)C[C@@H](OC)[C@@H](C)CN(C(=O)c1ccccc1F)[C@H](C)CO2 | inactive: 0.991
N[C@H](Cc1cnc[nH]1)C(=O)O | inactive: 0.982
C[C@@H]1CN([C@H](C)CO)C(=O)c2cc(NC(=O)CCC(F)(F)F)ccc2O[C@@H](C)CCCCO[C@H]1CN(C)C(=O)C1CCCCC1 | inactive: 0.943
COc1ccc(-n2cc(C(=O)NO)nn2)cc1 | inactive: 1.01
CO[C@@H]1CN(C)C(=O)c2ccc(NS(=O)(=O)CC(F)(F)F)cc2OC[C@H](C)N(C(=O)c2ccc3c(c2)OCO3)C[C@H]1C | inactive: 1.01
COc1ccc(NC(=O)N(C)C[C@H]2OCCCC[C@@H](C)Oc3ccc(NC(=O)CCC(F)(F)F)cc3C(=O)N([C@@H](C)CO)C[C@H]2C)cc1 | inactive: 0.953
C[C@H]1CCCCO[C@H](CN(C)Cc2ccc3c(c2)OCO3)[C@@H](C)CN([C@@H](C)CO)C(=O)c2cc(NC(=O)Nc3ccc4c(c3)OCO4)ccc2O1 | inactive: 1
Cc1noc(C)c1S(=O)(=O)Nc1ccc2c(c1)C(=O)N([C@H](C)CO)C[C@H](C)[C@@H](CN(C)Cc1ccc(-c3ccccc3)cc1)O2 | inactive: 0.961
OC[C@H]1CN(Cc2ccccc2)CCO1 | inactive: 0.999
C[C@@H]1CN([C@@H](C)CO)C(=O)c2cc(Br)cnc2O[C@@H]1CN(C)S(=O)(=O)c1ccccc1 | inactive: 0.997
C[C@H]1CN([C@@H](C)CO)C(=O)c2cc(NC(=O)Cn3cnnn3)ccc2O[C@H]1CN(C)Cc1ccc(Cl)c(Cl)c1 | inactive: 0.962
C[C@@H]1CCCCO[C@@H](CN(C)CC2CC2)[C@H](C)CN([C@@H](C)CO)C(=O)c2cc(NC(=O)C3CCCCC3)ccc2O1 | inactive: 0.993
C[C@@H]1CCCCO[C@H](CN(C)S(=O)(=O)c2ccc(Cl)cc2)[C@H](C)CN([C@@H](C)CO)C(=O)c2cc(NC(=O)NC3CCCCC3)ccc2O1 | inactive: 1.04
CNC(=O)c1ccc(CO)cc1 | inactive: 1.03

Structure (SMILES) | relative growth
C[C@H](CO)N1C[C@H](C)[C@@H](CN(C)S(=O)(=O)c2cccs2)Oc2c(NS(=O)(=O)c3ccccc3)cccc2C1=O | inactive: 1.02
CCC(C)(C)c1ccc(CC(C)CN2CC(C)OC(C)C2)cc1.Cl (stereo unspecified) | inactive: 1.13
CC(C)(C)C(=O)OCOP(=O)(OCOC(=O)C(C)(C)C)C(C)(Oc1ccc(O)cc1)P(=O)(OCOC(=O)C(C)(C)C)OCOC(=O)C(C)(C)C | inactive: 1.1
O=C(CCCCCCC(=O)Nc1ccc([C@@H]2O[C@H](CSc3nc(-c4ccccc4)c(-c4ccccc4)o3)C[C@H](c3ccccc3)O2)cc1)NO | inactive: 0.991
O=C(Cc1ccncc1)Nc1ccc2c(c1)[C@@H]1C[C@H](CC(=O)N3CCc4ccccc4C3)O[C@@H](CO)[C@@H]1O2 | inactive: 1
C[C@@H]1CN([C@@H](C)CO)C(=O)c2cc(NC(=O)Nc3ccccc3)ccc2O[C@@H](C)CCCCO[C@@H]1CN(C)C(=O)CCC(F)(F)F | inactive: 0.995
C[C@H]1CN([C@@H](C)CO)C(=O)Cc2cc(NC(=O)Cc3cn(C)c4ccccc34)ccc2O[C@@H]1CN(C)C(=O)Nc1ccc(C(F)(F)F)cc1 | inactive: 1.01
Cc1noc(C[C@@H]2C[C@@H]3CN(S(C)(=O)=O)C[C@@H]3O2)n1 | inactive: 1
COc1ccc(S(=O)(=O)N(C)C[C@@H]2Oc3ccc(NS(=O)(=O)c4ccc(F)cc4)cc3CC(=O)N([C@@H](C)CO)C[C@H]2C)cc1 | inactive: 1.03
Cc1noc(C)c1NC(=O)N(C)C[C@@H]1Oc2ccc(NS(=O)(=O)c3c(C)noc3C)cc2C(=O)N([C@@H](C)CO)C[C@@H]1C | inactive: 0.983
C[C@H](CO)N1C[C@H](C)[C@H](CN(C)C(=O)Nc2ccc(C(F)(F)F)cc2)Oc2c(NC(=O)c3nc4ccccc4s3)cccc2C1=O | inactive: 1.02
C[C@H](CO)N1C[C@H](C)[C@H](CN(C)S(=O)(=O)c2ccc(Cl)cc2)Oc2c(NS(=O)(=O)c3cn(C)cn3)cccc2C1=O | inactive: 0.997
C[C@H]1COC(=O)[C@@H](Cc2ccc(F)cc2)CC=CC[C@@H](CC(=O)N(CCO)Cc2ccccc2)C(=O)N1 | inactive: 0.992
Oc1c(Cl)cc(Cl)c(Cl)c1Cc1c(O)c(Cl)cc(Cl)c1Cl | active: 0.0546
O=Cc1ccc[nH]1 | inactive: 1.02
Cc1c(N(C)C)c(=O)n(-c2ccccc2)n1C | inactive: 1.08
C[C@H]1CN([C@@H](C)CO)C(=O)Cc2cc(NC(=O)NC3CCCCC3)ccc2O[C@H]1CN(C)Cc1ccc(C(=O)Nc2ccccc2N)cc1 | inactive: 0.993
COc1ccc(CNC(=O)C[C@H]2CC[C@H]3[C@H](COc4ccc(NC(=O)C5CC5)cc4C(=O)N3C)O2)cc1 | inactive: 0.985
COc1ccc(S(=O)(=O)N(C)C[C@H]2OCCCC[C@@H](C)Oc3ccc(NS(C)(=O)=O)cc3C(=O)N([C@H](C)CO)C[C@@H]2C)cc1 | inactive: 1.04
COc1ccc(NC(=O)Nc2ccc3c(c2)C(=O)N([C@H](C)CO)C[C@@H](C)[C@@H](CN(C)Cc2ccc(C(F)(F)F)cc2)OCCCC[C@H](C)O3)cc1 | inactive: 1.04
